# According to paper PMC12136788:
# The list shows a part of the results.
# T1: UNK ZnF1-3 (human, UniProt Q9C0B0 31-174)
# T1 sequence: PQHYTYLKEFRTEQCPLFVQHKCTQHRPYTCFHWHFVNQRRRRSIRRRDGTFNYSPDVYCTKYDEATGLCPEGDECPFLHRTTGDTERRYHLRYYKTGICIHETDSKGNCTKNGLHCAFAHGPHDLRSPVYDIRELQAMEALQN
# B1: chr7:19721593:19721594:+_ENSMUSG00000050428_ENSMUST00000053109|mus_mus|FALSE|FALSE (ssRNA)
# RNA: GGGAGUUCUACAGUCCGACGAUCAUUGGGUAAGUUGCCAUCUGGUGAAUGGGGCUCUCGGACAUUGGAGAUUCGGAAAGCUAUACGCACCUCGCCGGGCCCAGGGCCUGGCCGUUCCUCCUUGCGGAGACCCUUGGUAGGAGGCAACAGAGGAUUGAGCAUCA
# B2: chr7:141450121:141450122:+_ENSG00000106028_ENST00000265304|hu_mus|hu_hu_hu_mus_True|18_98 (ssRNA)
# RNA: GGGAGUUCUACAGUCCGACGAUCUCAUCCGUUCUAUUCCUUCUCUUUUGUCUGGUCACUCAGAAAUAUAAUGUUAUCAGCUAUGAUUGUUGUUGCUUGCCGCCUCACAUUGUUUUUAUCCAUGUAUUCGCCAUAGUCCACUUUCAACAGAGGAUUGAGCAUCA
# B3: chr11:106117246:106117247:-_ENSMUSG00000020706_ENSMUST00000021048|mus_mus|motif|central (ssRNA)
# RNA: GGGAGUUCUACAGUCCGACGAUCGCAGGCCUUACAAGUUAAAAGUAGAGGCUAGGAAGUAGAGUGCAAUAACUCGUAUCCGGAACGCUAGGAAGCAUCAACCAGAAGUUCUAUAUCUCUUCACAAAACUAGUGACCUCCAGUACAACAGAGGAUUGAGCAUCA
# B4: 59272170_59272290_945_CDS_ENSMUSG00000026024_ENSMUST00000027178|mouse|control|control (ssRNA)
# RNA: GGGAGUUCUACAGUCCGACGAUCAAACACCUCUCCCUGCUCAUCCAGUGCCUCUGGGUGAGGGCUGGGAGCAGGGCUGGCAUGCUUUUCUGCUUGAGACUCGGACAAUGUCACACCUAAAGGGCAGCAAUGGCUGUCCGAUAUCAACAGAGGAUUGAGCAUCA
# B5: chr13:100200628:100200629:-_ENSMUSG00000052727_ENSMUST00000064762|perfect_dup|FALSE|FALSE (ssRNA)
# RNA: GGGAGUUCUACAGUCCGACGAUCGUCUCCGGGUGUCUUCCCUCCGCUGUCUUUCUCCACACUAGAUGUAGUCAAAUCUCUAUUCAAGGCCAGAUGAUGUUGCAUUGUAUCAAAUAGCAUUGAGGAGCGGAAGCCAUAGGGCUCCAACAGAGGAUUGAGCAUCA
# B6: chr3:179287964:179287965:+_ENSG00000136518_ENST00000429709|hu_hu|hu_hu_hu_mus_True|48_58 (ssRNA)
# RNA: GGGAGUUCUACAGUCCGACGAUCCUUGAGUGGUGAGAUGGCCUCCAUGUUCUCCCUGGGCACGCGGAGGGCAUUGGUAUCUAUGUAGUAGGUGGGACCGCCCUGCUUGCCUUUGUCACCAUCAAUCUCCAUCAUUGUACUUCCCAACAGAGGAUUGAGCAUCA
# B7: chr2:17927185:17927186:-_ENSG00000163029_ENST00000351948|hu_mus|FALSE|FALSE (ssRNA)
# RNA: GGGAGUUCUACAGUCCGACGAUCUUUAUCAAAAUCUUCCAGUUCUUCUUGUCUUGGUCUUUUAGCAUUUUCAGGAGAGCAGAAAUUUUCUUCCUUUCUUUUGGCCAUCAGAUCUCCAACAAGUCGCGGUCACCCCGGGGAAGCCAACAGAGGAUUGAGCAUCA
# B8: chr19:16212804:16212805:+_ENSG00000167460_ENST00000300933|hu_mus|hu_hu_hu_mus_False|1_18 (ssRNA)
# RNA: GGGAGUUCUACAGUCCGACGAUCAACAAUUCUGGAGUGAAGGAAAGAUGUAACAUGGAACAGCAUUAAAGCUCAGUCAGAAGGCACAUGGGCAACAAUGAUCACCCCAGCAUUCUCCUACGUUGACCUUAAAGACAGAUGUUUCAACAGAGGAUUGAGCAUCA
# B9: chr17:62499630:62499631:-_ENSG00000108654_ENST00000581693|hu_hu|FALSE|FALSE (ssRNA)
# RNA: GGGAGUUCUACAGUCCGACGAUCGAGCACCACCGUAGAUACAAGUAGACUUCAAGCGACAUGCUCUACAAUAUUCAGCAGCUACUUGCUGCACCUGUUGGGCCAGUUCCCGAGUUGGUGCCAGCACCAAACAAAUAGGCCCAUCAACAGAGGAUUGAGCAUCA
# B10: 93044054_93044174_1553_3pUTR_ENSMUSG00000027217_ENSMUST00000111265|mouse|control|control (ssRNA)
# RNA: GGGAGUUCUACAGUCCGACGAUCACCCUCAGCCAGCGGGAGCAGGGACCGCUUCGCUCUCCAGCAGAUGGUGCUGCAGAGUCUGUCCUUGUGUUGUGAAAAGCCGGCUCCUUGGGGCCUGAGGACCGGGCUCCUCCUCCAGGACAACAGAGGAUUGAGCAUCA
# B11: chr7:151048522:151048523:+_ENSG00000013374_ENST00000566856|hu_mus|hu_hu_hu_mus_True|88_98 (ssRNA)
# RNA: GGGAGUUCUACAGUCCGACGAUCCUGUUUCUUAUUUAUGACAAUUUUGAUAUAAUUUUCUUGAAAUCCGAAAGUUUCAGCUAUUUGACACCUCAGGUCUCUACCAGUGACAUGCAAGCGGGUCUCCAACAAGCUUUUCUUAUCCAACAGAGGAUUGAGCAUCA
# B12: 86457377_86457497_3171_CDS_ENSMUSG00000013033_ENSMUST00000141158|mouse|control|control (ssRNA)
# RNA: GGGAGUUCUACAGUCCGACGAUCGACGCGGCUAGACUCCUUAUUGAUAGAUGCUGCGAUGACCUGUGAGUUGACCACCAGGGAGGCACCUCCAGGGCCACCUGUCCCUGCCUCACCUGCCAGCUUCACUGUGGCAUUCUCCGUCAACAGAGGAUUGAGCAUCA
# B13: chr5:10264850:10264851:+_ENSG00000150753_ENST00000503026|hu_mus|FALSE|FALSE (ssRNA)
# RNA: GGGAGUUCUACAGUCCGACGAUCAAAUGGUACAGUUUAUUCUUCAGAUUCUCCAGGCUUACGGAUGUCAUCAAUCUUCAGAAUCAUCCUAACCAUCUGGGUGGCAAGAGAGAUCUGCUGCUUUUUGCCAAUCAAGGUUUCUAUCAACAGAGGAUUGAGCAUCA
# B14: 27456595_27456914_3540_CDS_ENSG00000084774_ENST00000264705|human|control|control (ssRNA)
# RNA: GGGAGUUCUACAGUCCGACGAUCCACCACACCAUCAGAGGCCACGGCAUCCACGUCAAUCUCCUUAGCCUCCUGGAUGAACUUGGAGAUGACCACGGGAUGCUCUUUGGAGACGGCUGCUGCGCUGCUCAGGAAGCGCUCCAGCAACAGAGGAUUGAGCAUCA
# Biological target: T1, UNK ZnF1-3
# Assay: nsRBNS (natural sequence RNA bind-n-seq); RBNS binding buffer (assumed for nsRBNS): 25 mM Tris pH 7.5, 150 mM KCl, 3 mM MgCl2, 0.01% Triton X-100, 500 ug/ml BSA, 20 U/ml SUPERase-In, 4 C; UNK is unkempt and MSI1 is Musashi-1; names of the RNAs are library labels; protein concentration not given here; high values mean tight binding
row,Binder,binding signal [enrichment R]
1,B1,0.837
2,B2,0.373
3,B3,1.8
4,B4,0.459
5,B5,1.14
6,B6,0.639
7,B7,0.711
8,B8,1.31
9,B9,0.907
10,B10,0.543
11,B11,1.24
12,B12,0.698
13,B13,0.744
14,B14,1.34
